# Data taken from the supplement of paper PMC8728848.
# Some of the results follow.
# B1: PX15618B-bfa-464-25-464 (Bacteroides fragilis) (protein)
# chain: DQEPPLYVNENDIFTSPTRIEATLNGLYAAIKNTGTKSLMGGKSYLVFDNRGDDVINISNNLVTLFNTYNMNVGITDAENADTWTYAYLAINKVNTFLQSLEGAREVAGENYDRYVQEAKFVRALAYYYLNNLYPTPYSVNPDAKSVPLRLTAEAGTENNNMPRSTVKQIYEHILSDLENISALDTEVNTYTGVTHATQAAANMLKMRVYMAMNEWDKAITAGELVTGYSLPEDVTLIYKAPYFSQESIFSLPMADTNIPNTQQSLAEYYYDGKIMLIDTKSGIMSKPDYSLATDKRIIAFKGEKDLLMKFTDAKTKLQWVPIFRYAETLLDLAECYANKAGGEATAKSLLKQVRGRSVDAATDPLNIDNLSGDALKEAIYNEKRLEFIGEGIRGIDIMRRGEHFIKVGENETINVGPSDEKYTWPIPQVELLLNKDINK
# How the values were obtained:
# Experiment in all cases: glycan array binding signal (z-score within array); higher = stronger binding
# Settings in all cases: glycan notation: IUPAC condensed, linker removed
# Neu5Ac(a2-8)Neu5Ac = molecular target: Neu5Ac(a2-8)Neu5Ac
# Outline: (§1)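 The Consortium for Functional Glycomics database supplied 3228 glycan arrays, of which those lacking an available protein sequence were dropped. The binding signal, a within-array Z-score, was averaged across arrays of the same protein sequence and across linkers. Negative scores can be read as non-binding.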
# [1] = molecular target: Neu5Ac(a2-8)Neu5Ac(a2-3)Gal(b1-3)GalNAc(b1-4)[Neu5Ac(a2-3)]Gal(b1-4)Glc
# Outline: as §1
# [2] = molecular target: Neu5Ac(a2-8)Neu5Ac(a2-3)Gal(b1-3)GalNAc(b1-4)[Neu5Ac(a2-8)Neu5Ac(a2-3)]Gal(b1-4)Glc
# Outline: as §1
# [3] = molecular target: Neu5Ac(a2-8)Neu5Ac(a2-3)Gal(b1-4)Glc
# Outline: as §1
# [4] = molecular target: Neu5Ac(a2-8)Neu5Ac(a2-3)Gal(b1-4)GlcNAc
# Outline: as §1
# [5] = molecular target: Neu5Ac(a2-8)Neu5Ac(a2-3)[Gal(b1-3)GalNAc(b1-4)]Gal(b1-4)Glc
# Outline: as §1
# [6] = molecular target: Neu5Ac(a2-8)Neu5Ac(a2-3)[GalNAc(b1-4)]Gal(b1-4)Glc
# Outline: as §1
# [7] = molecular target: Neu5Ac(a2-8)Neu5Ac(a2-8)Neu5Ac
# Outline: as §1
# [8] = molecular target: Neu5Ac(a2-8)Neu5Ac(a2-8)Neu5Ac(a2-3)Gal(b1-4)Glc
# Outline: as §1
# [9] = molecular target: Neu5Ac(a2-8)Neu5Ac(a2-8)Neu5Ac(a2-3)[Gal(b1-3)GalNAc(b1-4)]Gal(b1-4)Glc
# Outline: as §1
# [10] = molecular target: Neu5Ac(a2-8)Neu5Ac(a2-8)Neu5Ac(a2-3)[GalNAc(b1-4)]Gal(b1-4)Glc
# Outline: as §1
# [11] = molecular target: Neu5Ac(a2-8)Neu5Ac(a2-8)Neu5Ac(a2-8)Neu5Ac(a2-3)[GalNAc(b1-4)]Gal(b1-4)Glc
# Outline: as §1
# [12] = molecular target: Neu5Ac(a2-8)Neu5Gc(a2-3)Gal(b1-4)GlcNAc
# Outline: as §1
# [13] = molecular target: Neu5Ac(b2-6)Gal(b1-4)GlcNAc
# Outline: as §1
# Neu5Ac(b2-6)GalNAc = molecular target: Neu5Ac(b2-6)GalNAc
# Outline: as §1
# [14] = molecular target: Neu5Ac9Ac(a2-3)Gal(b1-3)GlcNAc
# Outline: as §1
# [15] = molecular target: Neu5Ac9Ac(a2-3)Gal(b1-4)GlcNAc
# Outline: as §1
# [16] = molecular target: Neu5Ac9Ac(a2-6)Gal(b1-4)GlcNAc
# Outline: as §1
# [17] = molecular target: Neu5Gc(a2-3)Gal(b1-3)GlcNAc
# Outline: as §1
# [18] = molecular target: Neu5Gc(a2-3)Gal(b1-3)[Fuc(a1-4)]GlcNAc
# Outline: as §1
# Neu5Gc(a2-3)Gal(b1-4)Glc = molecular target: Neu5Gc(a2-3)Gal(b1-4)Glc
# Outline: as §1
# [19] = molecular target: Neu5Gc(a2-3)Gal(b1-4)GlcNAc
# Outline: as §1
# [20] = molecular target: Neu5Gc(a2-3)Gal(b1-4)GlcNAc(b1-3)Gal(b1-4)GlcNAc(b1-2)Man(a1-3)[Neu5Gc(a2-3)Gal(b1-4)GlcNAc(b1-3)Gal(b1-4)GlcNAc(b1-2)Man(a1-6)]Man(b1-4)GlcNAc(b1-4)GlcNAc
# Outline: as §1
# [21] = molecular target: Neu5Gc(a2-3)Gal(b1-4)[Fuc(a1-3)]GlcNAc
# Outline: as §1
# [22] = molecular target: Neu5Gc(a2-6)Gal(b1-4)GlcNAc
# Outline: as §1
# Neu5Gc(a2-6)GalNAc = molecular target: Neu5Gc(a2-6)GalNAc
# Outline: as §1
# [23] = molecular target: Neu5Gc(a2-8)Neu5Ac(a2-3)Gal(b1-4)GlcNAc
# Outline: as §1
# [24] = molecular target: Neu5Gc(a2-8)Neu5Gc(a2-3)Gal(b1-4)GlcNAc
# Outline: as §1
# [25] = molecular target: Neu5Gc(a2-8)Neu5Gc(a2-3)Gal(b1-4)GlcNAc(b1-3)Gal(b1-4)GlcNAc
# Outline: as §1
# [26] = molecular target: Neu5Gc(a2-8)Neu5Gc(a2-6)Gal(b1-4)GlcNAc
# Outline: as §1
# [27] = molecular target: Neu5Gc(b2-6)Gal(b1-4)GlcNAc
# Outline: as §1
binder,measurement,setting,value
B1,glycan array binding signal (z-score),Neu5Ac(a2-8)Neu5Ac,-0.092
same,glycan array binding signal (z-score),[1],-0.098
same,glycan array binding signal (z-score),[2],0.635
same,glycan array binding signal (z-score),[3],-0.012
same,glycan array binding signal (z-score),[4],-0.48
same,glycan array binding signal (z-score),[5],0.103
same,glycan array binding signal (z-score),[6],0.284
same,glycan array binding signal (z-score),[7],0.369
same,glycan array binding signal (z-score),[8],0.177
same,glycan array binding signal (z-score),[9],-0.03
same,glycan array binding signal (z-score),[10],-0.744
same,glycan array binding signal (z-score),[11],0.163
same,glycan array binding signal (z-score),[12],-0.104
same,glycan array binding signal (z-score),[13],-0.656
same,glycan array binding signal (z-score),Neu5Ac(b2-6)GalNAc,-0.7
same,glycan array binding signal (z-score),[14],-0.817
same,glycan array binding signal (z-score),[15],0.409
same,glycan array binding signal (z-score),[16],-0.361
same,glycan array binding signal (z-score),[17],-0.454
same,glycan array binding signal (z-score),[18],-0.415
same,glycan array binding signal (z-score),Neu5Gc(a2-3)Gal(b1-4)Glc,-0.315
same,glycan array binding signal (z-score),[19],0.039
same,glycan array binding signal (z-score),[20],0.195
same,glycan array binding signal (z-score),[21],0.009
same,glycan array binding signal (z-score),[22],0.351
same,glycan array binding signal (z-score),Neu5Gc(a2-6)GalNAc,0.373
same,glycan array binding signal (z-score),[23],-0.194
same,glycan array binding signal (z-score),[24],-0.429
same,glycan array binding signal (z-score),[25],-0.074
same,glycan array binding signal (z-score),[26],-0.309
same,glycan array binding signal (z-score),[27],-0.048
